Consider two molecules from PMC8137956, “Orphan GPR116 mediates the insulin sensitizing effects of the hepatokine FNDC4 in adipose tissue” (Nature Communications, 2021).

The chains behind the UniProt entries cited, without tags or fusion partners. Residues count along the entry.
UniProt Q13349, residues 18-1161: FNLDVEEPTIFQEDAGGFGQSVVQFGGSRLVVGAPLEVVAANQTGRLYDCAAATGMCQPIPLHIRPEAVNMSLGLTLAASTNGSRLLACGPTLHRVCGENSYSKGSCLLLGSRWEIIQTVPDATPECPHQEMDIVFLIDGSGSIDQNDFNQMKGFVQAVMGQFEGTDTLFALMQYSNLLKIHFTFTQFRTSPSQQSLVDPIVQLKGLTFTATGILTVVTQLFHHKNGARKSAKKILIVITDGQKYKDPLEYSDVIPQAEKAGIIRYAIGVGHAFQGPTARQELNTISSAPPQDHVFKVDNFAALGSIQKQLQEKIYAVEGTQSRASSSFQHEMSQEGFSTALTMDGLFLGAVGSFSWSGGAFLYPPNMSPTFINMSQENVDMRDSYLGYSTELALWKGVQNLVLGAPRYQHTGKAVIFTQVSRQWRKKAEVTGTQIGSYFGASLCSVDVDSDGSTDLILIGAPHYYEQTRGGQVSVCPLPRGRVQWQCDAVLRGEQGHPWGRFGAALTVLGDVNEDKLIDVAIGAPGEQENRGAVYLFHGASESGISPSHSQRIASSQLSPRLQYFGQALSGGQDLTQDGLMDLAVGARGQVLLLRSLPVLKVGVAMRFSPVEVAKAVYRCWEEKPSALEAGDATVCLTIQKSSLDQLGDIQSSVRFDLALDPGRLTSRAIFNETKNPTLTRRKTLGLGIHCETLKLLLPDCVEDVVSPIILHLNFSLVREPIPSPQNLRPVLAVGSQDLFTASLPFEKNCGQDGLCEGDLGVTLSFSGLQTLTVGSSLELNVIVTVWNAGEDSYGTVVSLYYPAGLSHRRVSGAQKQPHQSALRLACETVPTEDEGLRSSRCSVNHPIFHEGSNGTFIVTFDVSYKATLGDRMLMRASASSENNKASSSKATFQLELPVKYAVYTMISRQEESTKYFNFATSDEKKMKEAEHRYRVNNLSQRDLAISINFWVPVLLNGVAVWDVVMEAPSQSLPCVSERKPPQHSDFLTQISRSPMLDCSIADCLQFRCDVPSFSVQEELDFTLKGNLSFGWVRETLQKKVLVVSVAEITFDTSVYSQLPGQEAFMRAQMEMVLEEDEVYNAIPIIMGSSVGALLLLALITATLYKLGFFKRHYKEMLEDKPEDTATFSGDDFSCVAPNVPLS

Assay [1] addresses T1, human GPR116 with C-terminal fused FLAG, stably overexpressed (human) (UniProt Q8IZF2).
T1 sequence: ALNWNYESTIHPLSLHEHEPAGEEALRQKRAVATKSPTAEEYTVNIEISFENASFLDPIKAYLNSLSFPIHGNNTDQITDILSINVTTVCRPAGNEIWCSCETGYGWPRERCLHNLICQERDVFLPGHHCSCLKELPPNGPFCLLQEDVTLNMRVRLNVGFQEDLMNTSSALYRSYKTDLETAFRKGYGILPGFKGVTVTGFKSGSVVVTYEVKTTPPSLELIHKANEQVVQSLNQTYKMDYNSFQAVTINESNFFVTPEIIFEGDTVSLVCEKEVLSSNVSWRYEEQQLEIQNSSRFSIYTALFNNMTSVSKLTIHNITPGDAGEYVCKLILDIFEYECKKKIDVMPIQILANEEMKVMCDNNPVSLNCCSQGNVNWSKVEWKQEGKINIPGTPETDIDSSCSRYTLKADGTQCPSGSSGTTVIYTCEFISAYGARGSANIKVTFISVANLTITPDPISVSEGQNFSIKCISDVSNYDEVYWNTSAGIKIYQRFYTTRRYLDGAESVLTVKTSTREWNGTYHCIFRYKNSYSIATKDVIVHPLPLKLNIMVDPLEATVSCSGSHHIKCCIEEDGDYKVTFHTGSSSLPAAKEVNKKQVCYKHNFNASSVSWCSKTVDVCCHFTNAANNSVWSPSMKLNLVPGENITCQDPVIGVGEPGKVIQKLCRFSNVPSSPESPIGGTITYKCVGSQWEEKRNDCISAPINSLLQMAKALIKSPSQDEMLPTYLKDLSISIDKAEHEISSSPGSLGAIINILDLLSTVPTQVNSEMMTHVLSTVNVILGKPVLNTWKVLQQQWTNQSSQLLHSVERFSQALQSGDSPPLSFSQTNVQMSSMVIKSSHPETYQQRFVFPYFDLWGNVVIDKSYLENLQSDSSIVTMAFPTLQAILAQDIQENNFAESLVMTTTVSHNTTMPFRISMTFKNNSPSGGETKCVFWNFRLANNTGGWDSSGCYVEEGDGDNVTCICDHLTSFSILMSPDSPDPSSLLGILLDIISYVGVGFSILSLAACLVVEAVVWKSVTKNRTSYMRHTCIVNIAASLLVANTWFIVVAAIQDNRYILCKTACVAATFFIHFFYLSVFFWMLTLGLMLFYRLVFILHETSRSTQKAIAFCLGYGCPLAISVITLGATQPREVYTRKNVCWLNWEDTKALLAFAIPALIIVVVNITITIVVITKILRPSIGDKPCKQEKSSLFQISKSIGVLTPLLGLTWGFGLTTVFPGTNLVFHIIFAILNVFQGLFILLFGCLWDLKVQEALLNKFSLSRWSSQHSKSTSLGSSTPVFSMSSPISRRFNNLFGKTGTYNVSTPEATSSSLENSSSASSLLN
The experiment in a line: flow cytometry on cells; saturation binding of FcsFNDC4 or Fc control on HEK293T cells with stable human GPR116-FLAG OE or mock cells; also in excess of sFNDC4 (1 mM) for non-specific binding; 4 °C, PBS with 3% FBS; anti-human IgG-PE; Kd from specific binding; only the binder purified.

The target of assay [2] is T1, human GPR116 with C-terminal fused FLAG, stably overexpressed (human). The experiment in a line: flow cytometry on cells; HEK293T cells stably overexpressing human GPR116, 30 min with antiGPR116 (ab111169) or isotype control at different concentrations, antibody removed, then 100 nM FcsFNDC4 or Fc for 40 min on ice; anti-human IgG-PE; only the binder purified.
Assay [3] deals with T2, human RXFP1 (relaxin/insulin-like family peptide receptor 1), transiently overexpressed (human) (UniProt Q9HBX9).
T2 sequence: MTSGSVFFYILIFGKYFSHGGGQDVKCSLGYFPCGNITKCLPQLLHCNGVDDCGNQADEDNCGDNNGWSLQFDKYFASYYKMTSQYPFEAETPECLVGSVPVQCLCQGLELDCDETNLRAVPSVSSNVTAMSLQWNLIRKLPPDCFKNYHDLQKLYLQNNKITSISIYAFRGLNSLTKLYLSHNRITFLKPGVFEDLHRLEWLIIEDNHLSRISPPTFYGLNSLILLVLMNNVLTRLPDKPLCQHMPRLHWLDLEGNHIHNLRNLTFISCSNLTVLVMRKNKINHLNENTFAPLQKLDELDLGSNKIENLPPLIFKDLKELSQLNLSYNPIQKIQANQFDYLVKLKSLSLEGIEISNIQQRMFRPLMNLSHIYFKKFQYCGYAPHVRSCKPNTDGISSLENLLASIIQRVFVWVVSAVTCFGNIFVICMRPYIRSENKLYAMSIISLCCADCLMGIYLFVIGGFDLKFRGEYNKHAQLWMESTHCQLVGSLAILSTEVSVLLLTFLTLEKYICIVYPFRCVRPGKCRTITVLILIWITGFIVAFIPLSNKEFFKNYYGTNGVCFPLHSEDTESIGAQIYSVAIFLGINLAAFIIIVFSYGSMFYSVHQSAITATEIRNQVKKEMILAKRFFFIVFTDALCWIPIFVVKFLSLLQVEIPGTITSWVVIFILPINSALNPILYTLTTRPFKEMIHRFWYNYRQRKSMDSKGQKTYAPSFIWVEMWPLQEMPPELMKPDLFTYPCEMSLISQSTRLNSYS
The experiment in a line: flow cytometry on cells; live HEK293A cells 48 h after transient transfection; FcsFNDC4 100 nM, 40 min at 4 °C in PBS with 3% FBS; detected with anti-human IgG-PE; fold change of MFI per 10,000 cells against mock transfection; only the binder purified. (Flow cytometry measures light scatter and fluorescence of single cells or particles in a stream.)

In assay [4] the target is human ITGAD (integrin subunit alpha D), transiently overexpressed (human) (UniProt Q13349). The assay is described as above.
Assay [5] deals with T3, human GPR116 (G protein-coupled receptor 116), transiently overexpressed (human) (UniProt Q8IZF2).
T3 sequence: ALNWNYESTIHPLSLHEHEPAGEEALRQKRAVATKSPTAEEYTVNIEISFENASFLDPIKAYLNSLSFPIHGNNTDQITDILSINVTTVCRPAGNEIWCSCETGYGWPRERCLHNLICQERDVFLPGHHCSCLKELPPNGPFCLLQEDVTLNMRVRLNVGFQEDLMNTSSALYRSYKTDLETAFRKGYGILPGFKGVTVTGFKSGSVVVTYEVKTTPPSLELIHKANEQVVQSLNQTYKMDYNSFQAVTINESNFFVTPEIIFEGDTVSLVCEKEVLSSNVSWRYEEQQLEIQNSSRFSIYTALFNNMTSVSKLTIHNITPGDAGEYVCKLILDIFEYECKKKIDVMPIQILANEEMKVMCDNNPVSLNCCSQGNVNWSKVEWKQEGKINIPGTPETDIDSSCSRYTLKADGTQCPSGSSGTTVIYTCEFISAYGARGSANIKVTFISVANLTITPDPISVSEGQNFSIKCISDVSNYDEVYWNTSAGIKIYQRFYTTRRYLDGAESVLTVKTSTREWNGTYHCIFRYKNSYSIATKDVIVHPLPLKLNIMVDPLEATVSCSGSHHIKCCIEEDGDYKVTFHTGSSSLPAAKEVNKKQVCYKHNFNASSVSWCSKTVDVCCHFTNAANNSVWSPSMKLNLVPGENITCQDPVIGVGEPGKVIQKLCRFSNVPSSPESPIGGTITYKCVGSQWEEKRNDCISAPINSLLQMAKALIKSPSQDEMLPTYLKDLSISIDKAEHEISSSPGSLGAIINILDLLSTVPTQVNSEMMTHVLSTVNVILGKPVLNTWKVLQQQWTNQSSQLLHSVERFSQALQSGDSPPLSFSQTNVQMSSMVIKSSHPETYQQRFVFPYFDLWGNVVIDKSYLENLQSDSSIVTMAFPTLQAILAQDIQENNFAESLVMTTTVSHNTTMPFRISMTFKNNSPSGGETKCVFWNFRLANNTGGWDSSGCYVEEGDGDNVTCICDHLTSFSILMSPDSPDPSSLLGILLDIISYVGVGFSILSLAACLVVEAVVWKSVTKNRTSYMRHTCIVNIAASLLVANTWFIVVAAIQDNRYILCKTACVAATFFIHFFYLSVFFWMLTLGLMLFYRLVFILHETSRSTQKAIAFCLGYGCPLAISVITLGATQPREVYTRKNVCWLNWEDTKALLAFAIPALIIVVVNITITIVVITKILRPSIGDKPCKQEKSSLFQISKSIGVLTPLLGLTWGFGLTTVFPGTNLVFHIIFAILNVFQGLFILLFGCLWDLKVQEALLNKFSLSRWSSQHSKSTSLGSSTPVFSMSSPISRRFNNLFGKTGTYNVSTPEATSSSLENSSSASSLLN
Described as above.

These are yes or no findings as the source states them, for the method shown. Some binding calls cover weakened binding; strength is not graded here. Sequences can lack the tags named with a protein.

B1: untagged sFNDC4 (non-Fc-fused FNDC4, aa40-160) (domain or fragment, UniProt Q3TR08 40-160)
chain: ADRPPSPVNVTVTHLRANSATVSWDVPEGNIVIGYSISQQRQNGPGQRVIREVNTTTRACALWGLAEDSDYTVQVRSIGLRGESPPGPRVHFRTLKGSDRLPSNSSSPGDITVEGLDGERP
B1: the binding entry in assay [1] is recorded as “binds”.

B2: 6xHis-Fc-sFNDC4 fusion protein (extracellular part of mouse FNDC4 fused with human IgG Fc) (Fc fusion)
chain: RPPSPVNVTVTHLRANSATVSWDVPEGNIVIGYSISQQRQNGPGQRVIREVNTTTRACALWGLAEDSDYTVQVRSIGLRGESPPGPRVHFRTLKGSDRLPSNSSSPGDITVEGLDGERPLQTGE
notes: extracellular part of mouse FNDC4 (sFNDC4), stated as aa 40-160; also called FcFNDC4; FcsF4; not shown: 6xHis, N-terminal, kept; Fc (human IgG), N-terminal, kept
In the case of B2, the binding result in assay [2] is on record as “binds”; in assay [3] it was “no binding (tested: 100 nM)”; in assay [4], “no binding (tested: 100 nM)”; in assay [5] it was “binds”.
